In the supplement of paper PMC11417369:
Some of the results follow.

These sequences were tested on PF3D7_0420300 AP2 domain 1 (GST-tagged) (assay: gcPBM binding intensity (ln(normalized median fluorescence intensity)); higher = stronger DNA binding).
Method in brief: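 Each value is the highest Masliner-normalised natural-log median intensity across replicate spots of either orientation of a probe. The probes were primer-extended double-stranded 36-bp intergenic genomic sequences on an Agilent 4 × 180k array, alongside negative controls, exposed for 1 h to GST-tagged P. falciparum DNA-binding domains expressed in E. coli. Bound protein was picked up with Alexa488 anti-GST antibody and scanned at 488 nm.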

Sequence	gcPBM binding intensity (ln)
TTTTTTTTTTTTTATTGTACAAAGGTATAAAATAAT [XGTACX_site2396]	8.94
CATACATACAGACACACACACATATATATATATATA [CACACA_site2920]	9.91
ATAAAAATACAGTTAACACACATGTGGATATATATG [CACACA_site3771]	9.78
AACATAAAAATGAACATACACACATATATATATATA [CACACA_site2497]	9.83
AAACAAAAAAGTAAGAAAAGGGATGATTGGATCCAA [CACACA_negctrl_site1230]	9.33
AGATATTATAATTAATGTACAAAAAGAAAAAATAGA [XGTACX_site8964]	9.35
CATTTTTACCGGTACTGTACATAAAAAAAAAAAAAG [XGTACX_site1548]	9.17
TTATATGTTTTACAACGTACACAAAAAAAACTTATA [XGTACX_site4413]	9.02
TATATAATATTTTTCACACACCATTTCCTTAAACAC [CACACA_site4862]	9.58
GCAGGCTAAAAAATTACACACGAAAAAAATGAATTT [CACACA_site3417]	9.15
CATATATGGTTATATACATGCACCATTATATTATTA [TGCATGCA_site520]	9.23
TAAAAAAAAAGAAGGGGTACATGGATAATATATAAA [XGTACX_site8386]	9.53
TGTATAACCTGTGTTACACACATTATGATTTATATA [CACACA_site525]	9.54
TATAATAATTCTTTGAGTACTTAAACATGTGAAATT [XGTACX_site955]	9.07
GCGAGATGCTAAAATGCATGTTGGGCATTAGTTAAA [TGCATGCA_site586]	8.9
ATATTAATATATGTGGCACACATGTGGAGTCCTATT [CACACA_site213]	9.57
TATCATTTCTAAAAAGGTACACATACATCATATATT [XGTACX_site3386]	9.2
GTGTAGTAAAATCGATGTACGTACAAATCAATTATT [XGTACX_site7662]	9.28
AAAAAAATGAAGAAATGTACAAATTTCATTAATTTT [XGTACX_site354]	9.04
TATATATGTAAATGCACACATATGTGGATATACTTA [CACACA_site1699]	9.43
ACATATAAATATTGTGTGCACACACATAATATATAT	9.94
GTAATTTTAAAGAAAAGTACACATTTATTAATTATT [XGTACX_site4468]	9.09

Sequence	gcPBM binding intensity (ln)
AAAAATTATAACTAAAAAAATCACACAAAATATTTT [TGCATGCA_negctrl_site28]	9.34
TTGCATTTATTATACACACACAAAAAAATATATATA [CACACA_site238]	9.8
GTGTTAAATGTTTACACACAAACTTGCAATAATTAT [CACACA_site3825]	9.52
TATGTATTTAAGTTACCTGAACGTTCAGGTAAAATT [CACACA_negctrl_site1393]	9.25
TATAAAAAAAAAAAAAGTACTAACTTAAAACAATTT [XGTACX_site7969]	9.14
TTGATAATTATATAATGTACTCATTATAATATGATG [XGTACX_site7813]	8.97
TGATAAAGTAAATATACATGCGATTAGTTATATATA [TGCATGCA_site720]	9.31
TTTATTCTCAAACACACACACATATATATATATATA [CACACA_site2895]	9.69
TAATTAATAATAATATGTACATATTAATATATTATT [XGTACX_site6900]	9.13
TTTTATATATATATCACACACACACCCATGTTTTAA [CACACA_site79]	10
TATTTATTCTCCAACACACACACATATATTTATATA [CACACA_site7376]	9.98
AGTTTGTCAATCAACACACACCTATTTATTATAGAT [CACACA_site7777]	9.58
TTTTTTTTACATTCTGCACACAATTTATTTTTTTTT [CACACA_site36]	9.67
AAAAATGAGTGACACACACACATATAAATATAAATA [CACACA_site7115]	9.8
AAATCAAACTTTGGTGTGCACAAATATATACATATA [GTGCAC_site9986]	9.51
TTAACAAAACTTTTAACACACAAAAAAAAAAAAAAA [CACACA_site6947]	9.08
CTATAATAATAAAGTGAACACACACCGATAATATAT [CACACA_site9377]	9.78
GTAAGTTGTGCATTCACACACATATAAATATAAATA [CACACA_site7536]	9.58
CATTATGTTGTAAATGCACACATACAAATACATATA [CACACA_site8380]	9.42
TTATGATATATTTGTTGTACGCTTTTTTTATGAACT [XGTACX_site573]	9.51
AATTAAATTACTTATACACACATAAAATGCCTGTAT [CACACA_site6597]	9.5
ATGACCCACTTTTCTGCACACATAAAAAATATATAA [CACACA_site8092]	9.56
